Measured values from PubChem BioAssay AID1347417 (National Center for Advancing Translational Sciences (NCATS), 2020).
Out of some 120,000 compounds screened, about 5,300 (4.4%) were called active. This list was built around the results that the source calls inconclusive (neither active nor inactive); the mix of calls is not that of the screen. Calls come from the whole dose curve; as a rule, active = well fitted inhibition curve with a large enough effect; inconclusive = small, poorly fitted or top-dose-only effect; inactive = no such curve, though single readings can be large or run the other way. Where the call is inconclusive, the potency comes from a doubtful curve fit.

Assay: qHTS Primary assay for Inhibitors of Plasmodium falciparum Dd2 growth in vitro; note: nearly all actives have a fitted effect of over 65% in size;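 for activity, negative = inhibition: plate controls were DMSO vehicle for no effect and reference drug for full effect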
Conditions: P. falciparum Dd2 growth, SYBR Green, 72 h; activity, negative = inhibition: at 28.9 µM (top of the series) unless noted; series mostly up to 28.9 µM
How it was run: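 Infected erythrocytes (Dd2, 0.3% parasitemia, 2.5% hematocrit final) are added to compound in RPMI-1640/Albumax II medium, grown 72 h at 37C in low oxygen, then lysed with saponin/Triton-X containing SYBR Green and read by fluorescence.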
Potency is the fitted concentration of half-maximal effect; tags give direction and shape of the fitted curve.

Compound	outcome	Potency	activity, negative = inhibition
Cc1ccc(CC(=O)NCc2nnc3cc(-c4nc(C(C)C)no4)ccn23)cc1	inactive		
CCOCCOC1CCN(S(=O)(=O)c2cn(C)cn2)CC1		inconclusive: 3.98 µM [inhibitor, single point]	
O=C(NCC1CC1)C1Cn2cccc2C(=O)N1Cc1cccnc1 (centres undefined)		inconclusive: 17.8 µM [inhibitor, single point]	
CN1CC2(CCCN(Cc3cc(F)ccc3-n3cccn3)C2)OC1=O (centres undefined)			inactive: -6.6%
O=C(NCc1ccc(N2CCCC2)cc1)C1CCCN(c2cnn(Cc3ccccc3)c(=O)c2)C1 (centres undefined)		inconclusive: 1.41 µM [inhibitor, full curve, poor fit]	
c1ccc(-c2cn3c(n2)CO[C@@H](CNCc2cccs2)C3)cc1	inactive [at 44.1 µM]		
COc1cc(C(=O)N2CCN(CCc3ccccn3)CC2)cc(OC)c1OC		active: 2.82 µM	
CCCNC(=O)N1CCCCCC1CN1CCCC1 (centres undefined)		inconclusive: 12.6 µM [inhibitor, single point]	
CNC(=O)[C@H]1C[C@H](Oc2ccccc2)CN1Cc1ccc(F)c(F)c1		inconclusive: 17.8 µM [inhibitor, single point]	
CCn1ccc2cc(S(=O)(=O)N3CCC(C(=O)NCCc4ccc(C)cc4)CC3)ccc21		inconclusive: 17.8 µM [inhibitor, single point]	
COc1ccc(NC(=O)CSCc2cnn(-c3ccccc3)c2-n2cccc2)cc1			inactive: 28.6%
CCn1cc(S(=O)(=O)N2CCC3(CC2)CCC(O)(CN(C)C)CC3)cn1			inactive: -23.3%
Cc1ccc(Cn2ccn(Cc3ccccc3C)c(=O)c2=O)cc1		inconclusive: 5.62 µM [inhibitor, partial curve]	
Cc1ccc(NC(=O)C2CN(S(=O)(=O)C3CC3)CC23CCCCC3)c(F)c1 (centres undefined)		inconclusive: 17.8 µM [inhibitor, single point]	
Cc1noc(C)c1-c1cc2cc(CN(C)C)oc2c(N2CCOCC2)n1		inconclusive: 4.47 µM [inhibitor, partial curve, poor fit]	
C=CCn1cc2c3c(cccc31)[C@H](CC(C)C)N[C@H](C(=O)N1CCN(CCOC)CC1)C2		inconclusive: 17.8 µM [inhibitor, single point]	
CC(C)CCC(=O)N1C[C@@H](CO)[C@H](c2nc(-c3ccncc3)no2)C1			inactive: 12.2%
Cc1noc(C)c1[S+](=O)([O-])N1CCC2(CC1)C(=O)NN=C2c1ccccn1	inactive		
O=C(NC1CC1)c1cnn2ncccc12			inactive: 8.08% [at 44.1 µM]
CCOc1ccccc1CNC(=O)c1cc(-c2ccc(OC)cc2)nc2ccc(C(C)C)cc12		inconclusive: 17.8 µM [inhibitor, single point]	
O=C(c1ccc2c(c1)N(Cc1ccccc1)C(=O)c1ccccc1S2(=O)=O)N1CCN(c2ccccn2)CC1		inconclusive: 1.26 µM [inhibitor, partial curve, poor fit]	
CCc1ccccc1NC(=O)C1c2ccccc2C(=O)N(CCOC)C12CCCCC2 (centres undefined)		inconclusive: 17.8 µM [inhibitor, single point]	

Compound	outcome	Potency	activity, negative = inhibition
O=C(NC1CCCN(c2cc(-c3ccccc3)[nH]n2)C1)c1ccc2cc[nH]c2c1 (centres undefined)			inactive: -3.69%
CN1CCCCC12Cc1ccccc1CN(C(=O)Cc1ccccc1)C2 (centres undefined)		inconclusive: 5.62 µM [inhibitor, partial curve, poor fit]	
Cc1ccc(NC(=O)C(=O)NCC(c2cccnc2)N2CCc3ccccc32)cc1Cl (centres undefined)		inconclusive: 17.8 µM [inhibitor, single point]	
CCOc1ccccc1NC(=O)CN1C(=O)C2(SCC(=O)N2c2cccc(F)c2)c2ccccc21 (centres undefined)		inconclusive: 11.2 µM [inhibitor, single point]	
O=C(Nc1ccc(F)c(Cl)c1)c1cc(S(=O)(=O)N2CCCc3ccccc32)ccc1F		active: 10 µM	
Cc1ccc(CNC(=O)NC2CCc3nn(CC4CC4)c(=O)n3CC2)cc1 (centres undefined)			inactive: -23.5%
COc1ccc(-n2c(=O)c3c(n2Cc2ccccc2)CN(CCCc2ccccc2)CC3)cc1		inconclusive: 17.8 µM [inhibitor, single point]	
CC(=O)N1CCC(C2CCN(S(=O)(=O)c3ccc(C)c(Cl)c3)C2)CC1 (centres undefined)			inactive: -21.3%
COc1ccc(C(=O)N2CCc3cc(OC)c(OC)cc3C2COc2ccc3c(C)cc(=O)oc3c2)c(OC)c1 (centres undefined)		inconclusive: 2.51 µM [inhibitor, full curve]	
COCC(=O)N1CCc2oc(C)c(C(=O)N(C)C)c2C1		inconclusive: 11.2 µM [inhibitor, single point]	
O=C(Nc1ccc2n(c1=O)C[C@H]1C[C@@H]2CN(C(=O)c2ccccc2)C1)NC1CCCCC1		inconclusive: 12.6 µM [inhibitor, single point]	
O=C(CCc1ccccc1)NCCc1noc(C2CC2)n1			inactive: 13.9%
Cc1ccncc1-c1c(C)nn2c1N(Cc1cccc(OC(F)(F)F)c1)CCC2		inconclusive: 2.82 µM [inhibitor, single point]	
Cc1cc(=O)n(CC(=O)Nc2ccc(F)cc2)c(N2CCC(C)CC2)n1			inactive: -15.9%
CC(C)(C)OC(=O)N1CCC(c2c(C(=O)NCCN3CCC(Cc4ccccc4)CC3)cnn2-c2ccccc2)CC1		active: 2.82 µM	
C#CCN(C)C[C@H]1CN2CC[C@H]1C[C@@H]2CNC(=O)c1ccc(C(F)(F)F)cc1		inconclusive: 6.31 µM [inhibitor, partial curve, poor fit]	
Cc1ccc2oc3c(c(=O)c2c1)C(c1ccc(F)cc1)N(c1nc(C)c(C)s1)C3=O (centres undefined)			inactive: 3.47%
Cc1noc2c(N(C)C)cc(-c3cccc(C(F)(F)F)c3)nc12		inconclusive: 31.6 µM [inhibitor, single point]	
CCn1cc(CN2CCn3c(nnc3[C@@H]3C[C@@H](O)CN3Cc3cccnc3)C2)c(C)n1			inactive: 24.2%
COC[C@H]1CCCN1Cc1nc(C2(O)CCN(CC3CCCCC3)CC2)cs1		active: 10 µM	
COc1ccc(-n2nc3c(N4CCCC(C(=O)NCCc5ccc(C)cc5)C4)nnc(C)c3c2C)cc1 (centres undefined)		active: 8.91 µM	
COc1ccccc1C(=O)NCc1nnc2cc(-c3nc(C(C)C)no3)ccn12		inconclusive: 14.1 µM [inhibitor, single point]	
